Data as given in PubChem BioAssay AID1347073 (National Center for Advancing Translational Sciences (NCATS), 2019).
In all, about 45,000 compounds went through this assay and about 200 (0.44%) were called active. Not shown: some 7% with an inconclusive outcome. The call rests on the fitted dose curve; in most records, active means well fitted activation curve with a large enough effect; inconclusive means small, poorly fitted or top-dose-only effect; inactive means no such curve, though single readings can be large or run the other way. The list shows a part of the results.

assay: qHTS of TDP-43 Inhibitors: NCGC Sytravon Library Screen; conditions: yeast TDP-43 toxicity rescue, BacTiter-Glo growth, 24 h; series mostly up to 46.1 µM; growth rescue (activation): at the top concentration; further: 0% is about no effect; nearly all actives have a fitted effect of over 55% in size
Procedure, shortened: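 TDP-43-expressing yeast, pregrown in raffinose, seeded at OD600 0.02 in galactose medium with compound for 24 hr at 30 deg C. Growth read by BacTiter-Glo luminescence, so rescue of toxicity appears as activation.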

SMILES | growth rescue (activation)
Cc1nc(-c2cccc(NC(=O)c3cc4cc(Br)ccc4oc3=O)c2)cs1 | inactive: -13.8%
Cc1ccccc1OCC(=O)NCCCNC(=O)c1ccncc1 | inactive: -4.71%
CCCSc1nc2sc3c(c2c(=O)n1CC)CC(C)(C)OC3 | inactive: 7.11%
Cc1cccc(OCC(=O)NCCCNC(=O)c2ccccn2)c1 | inactive: 11.7%
O=C(Cc1ccc(Br)cc1)Nc1cccc(Cl)c1 | inactive: -4.9%
O=C(Cc1ccc(NS(=O)(=O)c2ccc(F)cc2)cc1)NCc1cccnc1 | inactive: -6.58%
COc1cnc(-c2ccccc2)[nH]c1=O | inactive: -4.47%
COc1cc(Cn2c3ccc(NC(=O)CC(C)(C)C)cc3c(=O)n2C)ccc1F | inactive: 11%
Cc1ccc(S(=O)(=O)N2CCN(C(=O)c3ccc(Br)o3)CC2)c(C)c1 | inactive: 18%
Cc1cccc(NC(=O)N2CCN(Cc3ccc(Cl)cc3)CC2)c1 | inactive: -6.98%
CC(NS(=O)(=O)c1ccc(OCC(=O)N2CCCC2)cc1)c1ccccc1 (centres undefined) | inactive: -4.41%
C=CCc1cc(OC)ccc1OCC(O)CN1CCN(c2ccc(OC)cc2)CC1 (centres undefined) | inactive: 2.23%
CCn1c(CC(=O)Nc2ccccc2)nnc1SCC(=O)Nc1nnc(C)s1 | inactive: -2.37%
Cc1ccc(CNC(=O)C2CCC(=O)N2Cc2ccc(F)cc2)cc1 (centres undefined) | inactive: 14.2%
CN(c1ccc([N+](=O)[O-])cc1C(N)=O)C1CCCCC1 | inactive: 1.34%
Cc1cccc2sc(NC(=O)c3ccc(NS(=O)(=O)c4cccs4)cc3)nc12 | inactive: 8.61%
COc1ccc(CCC(C)NCC2CCCCC2)cc1 (centres undefined) | inactive: -31.1%
CCn1c(SCC(=O)NC(=O)NCc2ccco2)nc2sc(C)c(C)c2c1=O | inactive: 27.8%
Cc1ccc(NC(=O)CSc2nnc(C3CC3)n2CC2CCCO2)c(C)c1 (centres undefined) | inactive: -11.6%
CC(C)c1nnc(NC(=O)C2CCCN2C(=O)Nc2ccccc2)s1 (centres undefined) | inactive: 3.61%
COC(=O)c1ccc2c(=O)[nH]c(CSc3nnc(C(F)(F)F)n3C)nc2c1 | inactive: -12.4%
COc1ccc(NC(=O)CSc2nc3nc(C)cc(C)c3c(=O)[nH]2)cc1 | inactive: -11.1%
CS(=O)(=O)Oc1ccc2c(c1)O/C(=C\C=C\c1ccccc1)C2=O | inactive: 8.71%

SMILES | growth rescue (activation)
CCC(=O)Nc1ccccc1C(=O)OC(c1ccccc1)c1ccccc1 | inactive: 6.83%
O=C(Nc1nc2ccccc2[nH]1)c1ccc(Cl)c([N+](=O)[O-])c1 | inactive: 5.49%
COc1ccc(-c2nc(SC(C)C(=O)NC3CC3)n[nH]2)cc1 (centres undefined) | inactive: 20.4%
CCOC(=O)c1ccc(N=C2SC(C(=O)Nc3ccc(C(=O)O)cc3)CC(=O)N2Cc2cccs2)cc1 (centres undefined) | inactive: 9.57%
O=C(COC(=O)CC1c2ccccc2CCN1S(=O)(=O)c1ccccc1)Nc1ccccc1 (centres undefined) | inactive: 9.56%
O=C(c1cccc([N+](=O)[O-])c1)N1CCN(c2n[nH]c(=O)[nH]c2=O)CC1 | inactive: -0.835%
C/C(=N\N1CCN(Cc2ccccc2Cl)CC1)c1ccc([N+](=O)[O-])cc1 | inactive: 18.9%
Cc1[nH]c2ccccc2c1C1(O)C(=O)N(Cc2ccc(Cl)cc2)c2ccccc21 (centres undefined) | inactive: 4.95%
CCc1cccc(C)c1Nc1c(-c2cccc(O)c2)nc2sccn12 | inactive: 15.7%
O=C(Nc1cccc(S(=O)(=O)N2CCCCCC2)c1)c1ccc2c(c1)OCO2 | inactive: 6.14%
CC(=O)c1cc(F)ccc1OCC(=O)Nc1ccc2c(c1)OCO2 | inactive: 5.19%
CCSc1nnc(NC(=O)c2cc(-c3ccccc3O)n[nH]2)s1 | inactive: 24%
COc1ccc(C(=O)OCC(=O)Nc2c(C)cccc2C)cc1 | inactive: 22.1%
CCNC(=O)C1(C)CCN(C(=O)c2cc(F)ccc2C)C1 (centres undefined) | inactive: -8.9%
Cc1ccc(Sc2cc(C(=O)NCCCN(C)C)c3ccccc3n2)cc1 | inactive: -0.284%
CCN(CC)S(=O)(=O)c1ccc2c(c1)N(CC(=O)Nc1ccc(NC(C)=O)cc1)C(=O)CO2 | inactive: -2.57%
O=C(O)c1cccc(S(=O)(=O)Nc2ccc(Cc3ccncc3)cc2)c1 | inactive: 15.9%
CC1CN(c2ccnc3cc(Cl)ccc23)CC(C)O1 (centres undefined) | inactive: 5.77%
O=C(Nc1cccnc1)c1ccc(-c2ccc(Cl)cc2)o1 | inactive: -0.588%
CC(=O)Nc1ccc(NC(=O)CCOc2cc(C)ccc2C)cc1 | inactive: -11.2%
COc1ccc(-c2ccc(C(c3c(C)[nH][nH]c3=O)c3c(C)[nH][nH]c3=O)o2)c([N+](=O)[O-])c1 | inactive: -2.31%
CCN(CC)S(=O)(=O)c1cccc(-c2n[nH]c(=S)n2C)c1 | inactive: -11.9%
COc1ccc(NC(=S)NCCC2=CCCCC2)cc1OC | inactive: 13.1%

SMILES | growth rescue (activation)
CNC(=O)c1cc(Cl)c(OC)c(OC)c1 | inactive: 4.86%
COc1ccc(OCC(=O)Nc2cccc(C(=O)Nc3ccccc3C(=O)O)c2)cc1 | inactive: 3.82%
Cc1cccc(N=C(NO)c2nonc2N)c1 | inactive: -0.538%
CCCS(=O)(=O)NC(=O)C1(C)CCN(C(=O)Cc2ccc(OC)cc2)C1 (centres undefined) | inactive: -8.17%
CCCn1c(CCNC(=O)c2ccco2)nc2ccccc21 | inactive: -20.4%
NS(=O)(=O)c1ccc(NC(=O)CN2C(=O)C3C4C=CC(C4)C3C2=O)cc1 (centres undefined) | inactive: -17.6%
CCN(C(=O)COC(=O)c1ccc(Br)o1)C1CCCCC1 | inactive: 3.52%
Cc1cc(C)nc(SC2CC(=O)N(c3ccc(Cl)cc3)C2=O)n1 (centres undefined) | inactive: -4.03%
CC(=O)NC(C)(c1ccccc1)c1nc(/C=C/c2ccccc2)cs1 (centres undefined) | inactive: 28.8%
CCOC(=O)c1ccc(CN(Cc2ccccc2)S(=O)(=O)c2cccc([N+](=O)[O-])c2)cc1 | inactive: -4.97%
Cc1ccc(NC(=O)C2CCC(=O)N2C(=O)OCc2ccccc2)cc1 (centres undefined) | inactive: 10.5%
CCOC(=O)C1(CCOc2ccccc2)CCN(Cc2cnc(C)s2)CC1 | inactive: 2.07%
COc1ccc(-c2nn(C)c3sc(C(=O)NCCN(C)C)cc23)cc1OC | inactive: -7.02%
COc1ccc(Cn2c(O)c(C=Nc3ccccc3)c3ccccc3c2=O)cc1 | inactive: -0.874%
COc1ccc(C(=O)Nc2nc(C)c3cc4c(cc3n2)OCO4)cc1 | inactive: -0.471%
Cn1c(=O)n(C)c2cc([N+](=O)[O-])c(N3CCN(CCO)CC3)cc21 | inactive: 6.27%
CC(=O)OCC1OC(OC(C)=O)C(NC(=O)Cc2ccccc2)C(OC(C)=O)C1OC(C)=O (centres undefined) | inactive: 2.3%
CCCOc1ccc(S(=O)(=O)n2cc(F)c(=O)[nH]c2=O)cc1 | inactive: 5.61%
O=S(=O)(NCCN1CCOCC1)c1cc(Cl)ccc1Cl | inactive: 0.86%
CC1CCCC(C)N1C(=O)CSc1nc(N)cc(N)n1 (centres undefined) | inactive: -1.74%
Cc1cc(NN)nc(NS(=O)(=O)c2ccccc2)n1 | inactive: 5.78%
Cc1cc(C)nc(N2CCC(C(=O)NNC(=O)c3ccccc3)CC2)n1 | inactive: -11.8%
CCOC(=O)c1sc(NC(=O)c2sc(C)nc2C)nc1C | inactive: 11.4%
